From publication PMC4336329 (PLoS ONE, 2015)
The whole screen tested about 310,000 compounds, of which about 2,200 (0.71%) showed an effect of 50% or more. Effects have a minus sign here. The list shows a part of the results.

Target: human ether-à-go-go-related gene (hERG) potassium channel (human, UniProt Q12809)
Test: primary screen, population patch clamp on CHO cells stably expressing hERG

human ether-à-go-go-related gene (hERG) potassium channel, sequence (Q12809 whole entry, looked up): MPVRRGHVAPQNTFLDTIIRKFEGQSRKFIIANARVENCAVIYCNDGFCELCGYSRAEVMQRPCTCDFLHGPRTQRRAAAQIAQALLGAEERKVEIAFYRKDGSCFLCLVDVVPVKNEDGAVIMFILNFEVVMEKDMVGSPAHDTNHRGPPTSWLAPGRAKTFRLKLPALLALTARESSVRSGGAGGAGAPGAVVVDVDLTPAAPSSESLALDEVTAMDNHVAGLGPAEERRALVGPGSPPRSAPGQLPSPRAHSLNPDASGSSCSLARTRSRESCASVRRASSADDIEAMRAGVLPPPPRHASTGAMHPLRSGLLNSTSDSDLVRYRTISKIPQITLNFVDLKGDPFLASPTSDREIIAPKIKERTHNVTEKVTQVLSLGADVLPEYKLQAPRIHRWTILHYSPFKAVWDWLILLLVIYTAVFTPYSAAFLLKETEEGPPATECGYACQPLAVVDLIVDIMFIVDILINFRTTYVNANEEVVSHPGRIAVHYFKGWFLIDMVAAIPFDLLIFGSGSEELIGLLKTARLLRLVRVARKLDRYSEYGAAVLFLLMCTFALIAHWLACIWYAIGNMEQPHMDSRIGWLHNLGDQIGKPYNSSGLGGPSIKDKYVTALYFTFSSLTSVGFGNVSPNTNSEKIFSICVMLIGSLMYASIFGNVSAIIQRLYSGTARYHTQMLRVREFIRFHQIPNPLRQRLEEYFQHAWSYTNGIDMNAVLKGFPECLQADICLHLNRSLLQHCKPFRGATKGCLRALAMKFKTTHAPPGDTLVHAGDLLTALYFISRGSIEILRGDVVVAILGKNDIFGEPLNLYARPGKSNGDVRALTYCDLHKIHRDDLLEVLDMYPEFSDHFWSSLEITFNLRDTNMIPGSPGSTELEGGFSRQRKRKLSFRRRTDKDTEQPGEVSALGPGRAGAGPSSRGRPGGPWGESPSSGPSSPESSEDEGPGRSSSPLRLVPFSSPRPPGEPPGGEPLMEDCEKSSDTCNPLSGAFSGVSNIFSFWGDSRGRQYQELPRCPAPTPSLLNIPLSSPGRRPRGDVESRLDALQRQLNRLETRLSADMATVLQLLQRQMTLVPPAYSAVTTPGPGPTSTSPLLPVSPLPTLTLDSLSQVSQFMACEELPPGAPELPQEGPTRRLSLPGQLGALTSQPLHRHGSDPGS

Compared with `O=C(COC(=O)C1CC1)Nc1ccc(Cl)cc1Cl`, `O=C(COC(=O)c1ccc(F)cc1Cl)NC(=O)NC1CCCC1` is lower in “hERG current change (%, negative = inhibition) at 1uM” value: 14.9% for the first, 7.65% for the second.

First: CC(C)C(=O)Nc1nnn(C)n1
Second: CC(Sc1ncn[nH]1)C(=O)Nc1ccc(Cl)cn1 (centres unmarked)
The “hERG current change (%, negative = inhibition) at 1uM” value of the first is lower: 6.03% for the first, 16.7% for the second.

Going from `Cc1ccc(S(=O)(=O)NC(C(=O)Oc2ccc3c(C(F)(F)F)cc(=O)oc3c2)c2ccccc2)cc1` (centres unmarked) to `Cc1ccc(S(=O)(=O)c2cc3ccccc3oc2=Nc2ccc3c(c2)OCO3)cc1`, the “hERG current change (%, negative = inhibition) at 1uM” value rises from 5.76% to 12.2%.

First: O=C(CC(=O)c1ccccc1)Nc1ccccn1
Second: COc1ccccc1NS(=O)(=O)c1cccc(C(=O)NCc2ccccn2)c1
The “hERG current change (%, negative = inhibition) at 1uM” value of the first is lower: 8.5% for the first, 14.3% for the second.

First: COc1ccccc1OCCNC(=O)c1ccc2c(c1)OCCO2
Second: Cc1cc(C(=O)CN2C(=O)C(=O)N(Cc3ccccc3)C2=O)c(C)n1-c1ccc2c(c1)OCCO2
The “hERG current change (%, negative = inhibition) at 1uM” value of the first is higher: 19.9% for the first, 9.24% for the second.

Compared with `O=C(NC1CC1)c1cc(-c2ccc(Br)cc2)nc2ccccc12`, `O=C(NCc1cc([N+](=O)[O-])ccc1O)c1cc(-c2ccncc2)nc2ccccc12` is higher in “hERG current change (%, negative = inhibition) at 1uM” value: 2.54% for the first, 10.2% for the second.

First: CCOc1cc(/C=N/NC(=O)c2cccnc2)ccc1OCC(=O)N1CCOCC1
Second: CC(C)(C)C(=O)Nc1ccnn1C1CCN(C(=O)c2cccc(Cl)c2)CC1
The “hERG current change (%, negative = inhibition) at 1uM” value of the first is lower: 3.03% for the first, 12.7% for the second.

Going from `COc1cc(OC)c(OC)cc1CN1CCC(O)CC1.Cl` to `COc1cc(C2NC(=O)NC(C)=C2[N+](=O)[O-])cc(OC)c1OC` (centres unmarked), the “hERG current change (%, negative = inhibition) at 1uM” value rises from 13.6% to 14.4%.

First: C=CCNC(=O)C(C)Sc1ccc(Cl)cc1 (centres unmarked)
Second: O=C(COc1ccccc1)NS(=O)(=O)c1ccc(Cl)cc1
The “hERG current change (%, negative = inhibition) at 1uM” value of the first is lower: 7.21% for the first, 16.6% for the second.

Going from `CC(=O)Nc1ccc(NC(=O)C(C)OC(=O)CNS(=O)(=O)c2ccc(Br)cc2Cl)cc1` (centres unmarked) to `CC(=O)Nc1ccc(NC(=O)CN(C)S(=O)(=O)c2ccc3c(c2)CCC(=O)N3)cc1`, the “hERG current change (%, negative = inhibition) at 1uM” value falls from 15.3% to 15.2%.

First: CCCSc1nnc(CSc2nc3ccccc3s2)n1-c1ccccc1
Second: O=C(CCS(=O)(=O)c1ccccc1)Nc1ccc(-c2nc3ccccc3s2)c(O)c1
The “hERG current change (%, negative = inhibition) at 1uM” value of the first is lower: 4.42% for the first, 10% for the second.

Going from `CC(=O)Nc1n[nH]c(S(=O)(=O)Cc2ccc(Cl)cc2Cl)n1` to `COC(=O)C1=C(C)Nc2nnnn2C1c1ccccc1Cl` (centres unmarked), the “hERG current change (%, negative = inhibition) at 1uM” value falls from 10.2% to 7.35%.

First: Cc1nn(-c2ccccc2)c(C)c1NC(=O)COC(=O)CCCOc1ccccc1
Second: COc1ccccc1NC(=O)CCCC(=O)OCC(=O)c1ccc(F)cc1
The “hERG current change (%, negative = inhibition) at 1uM” value of the first is lower: 1.82% for the first, 7.77% for the second.

First: CC(C)(C)NC(=O)NC(=O)COC(=O)Cc1coc2ccc3ccccc3c12
Second: Cc1[nH]c2ccccc2c1C(=O)COC(=O)Cn1c(C)nc2ccccc21
The “hERG current change (%, negative = inhibition) at 1uM” value of the first is lower: -10.9% for the first, 11.3% for the second.

First: CCOC(=O)N1CCC(NC(=O)C2CCCN(S(=O)(=O)c3cccnc3)C2)CC1 (centres unmarked)
Second: O=C(C1CCN(S(=O)(=O)c2ccccc2)CC1)N1CCN(c2ccccc2)CC1
The “hERG current change (%, negative = inhibition) at 1uM” value of the first is lower: 8.47% for the first, 8.6% for the second.

Compared with `CCc1ccc(C(C)NC(=O)c2cccs2)cc1` (centres unmarked), `COCCN(C(=O)Cc1cccs1)C(C(=O)NCc1ccc(OC)cc1)c1ccccc1` (centres unmarked) is lower in “hERG current change (%, negative = inhibition) at 1uM” value: 12.5% for the first, 8.8% for the second.

Compared with `O=C(NC1CC1)C1CC(=O)N(c2ccccc2)C1` (centres unmarked), `COC(=O)N/N=C\c1c(C)[nH]n(-c2ccccc2)c1=O` is higher in “hERG current change (%, negative = inhibition) at 1uM” value: 14.3% for the first, 16.4% for the second.

Compared with `CC(C)OC(=O)C1Cc2ccccc2CN1S(=O)(=O)c1cccs1` (centres unmarked), `CC(=O)Oc1ccc(N(C(C)=O)S(=O)(=O)c2cccs2)c2ccccc12` is lower in “hERG current change (%, negative = inhibition) at 1uM” value: 12.4% for the first, 10.6% for the second.

Going from `O=C(CCSc1ccccc1)Nc1nnc(-c2cccs2)o1` to `Cc1ccccc1-c1nnc(SCC(=O)Nc2cccc(C)c2C)o1`, the “hERG current change (%, negative = inhibition) at 1uM” value falls from 5% to 0.205%.

First: CC1(C)CC(=O)C/C(=N\NC(=O)Cc2ccccc2)C1
Second: COc1ccc(/C(C)=N/NC(=O)CNC(=O)Cc2ccccc2)c(OC)c1
The “hERG current change (%, negative = inhibition) at 1uM” value of the first is higher: 17.2% for the first, 8.11% for the second.

Going from `CC(=O)N1CCN(S(=O)(=O)c2ccc(C)c([N+](=O)[O-])c2)C1C(C)C` (centres unmarked) to `CC(=O)N1CCC(N(CCN2CCOCC2)C(=S)Nc2cc(C)ccc2C)CC1`, the “hERG current change (%, negative = inhibition) at 1uM” value falls from 16% to 11.1%.

First: CC(=O)N1CCN(c2ccccc2NC(=O)c2ccc(Br)o2)CC1
Second: CCCNC(=O)c1cn(CC)c2cc(N3CCN(C(=O)c4ccco4)CC3)c(F)cc2c1=O
The “hERG current change (%, negative = inhibition) at 1uM” value of the first is lower: -23.5% for the first, -7.06% for the second.

Compared with `CCN(CC)CCN(C(=O)c1ccc2c(c1)OCCO2)c1nc2cc(C)cc(C)c2s1.Cl`, `CCOc1ccc(NC(=O)CC2C(=O)N(C)C(=S)N2Cc2ccc3c(c2)OCO3)cc1` (centres unmarked) is higher in “hERG current change (%, negative = inhibition) at 1uM” value: -43.1% for the first, 5.45% for the second.

Going from `C=CCn1c(N2C(=O)CC(Cc3ccccc3)C2=O)nc2ccccc21` (centres unmarked) to `CC1Cc2nc(SCC(=O)NCc3ccco3)n(-c3ccccc3)c(=O)c2S1` (centres unmarked), the “hERG current change (%, negative = inhibition) at 1uM” value rises from -6.06% to -3.27%.

Compared with `CCCCN(C)C(=O)CSc1nc(NCc2ccc(OC)cc2)c2ccccc2n1`, `COc1ccc(CCNC(=O)CSc2nc3ccccc3o2)cc1` is higher in “hERG current change (%, negative = inhibition) at 1uM” value: -41.5% for the first, 2.32% for the second.

Compared with `COc1ccc(-c2nnc(-c3ccc(Br)o3)o2)cc1OC`, `CCc1nn(-c2ccccc2)c(N)c1-c1ccc(OC)c(OC)c1` is lower in “hERG current change (%, negative = inhibition) at 1uM” value: 8.87% for the first, 8.68% for the second.

First: CC1CCCCN1C(=O)CSc1ccc(-c2ccc(F)cc2)nn1 (centres unmarked)
Second: COc1ccc2cc(C(=O)C3CCCN(C(=O)CCc4cnn(C)c4)C3)ccc2c1 (centres unmarked)
The “hERG current change (%, negative = inhibition) at 1uM” value of the first is lower: -4.47% for the first, 8.19% for the second.

Compared with `COc1ccc(-c2noc(C)c2-c2ccc3ccccc3n2)c(O)c1`, `CCN(Cc1cccc(F)c1)C(=O)c1ccc2ccccc2n1` is lower in “hERG current change (%, negative = inhibition) at 1uM” value: 7.25% for the first, 5.47% for the second.

Going from `CCOc1ccccc1C(=O)N[C@H](C(=O)Nc1cc(S(=O)(=O)N(C)C)ccc1OC)C(C)C` to `Cc1cc(S(=O)(=O)NCc2ccccc2)ccc1OCC(=O)NCc1ccncc1`, the “hERG current change (%, negative = inhibition) at 1uM” value rises from -1.21% to 9.34%.

Going from `COc1ccc(OC)c(NC(=O)COC(=O)COc2c(Cl)cc(Cl)c3ccc(C)nc23)c1` to `CNc1c(NC(=O)COc2ccc(Cl)cc2)c(=O)oc2ccccc12`, the “hERG current change (%, negative = inhibition) at 1uM” value falls from 9.96% to 6.12%.

Compared with `CCOC(=O)c1ccc(NC(=O)CCc2ccc(C)o2)cc1`, `CC(=O)c1ccc(OCc2cc(C(=O)N(C)CCOc3ccc(C)cc3)no2)cc1` is higher in “hERG current change (%, negative = inhibition) at 1uM” value: 10.9% for the first, 12.1% for the second.

Compared with `O=C(Nc1ccc(N2CCOCC2)cc1)c1cc2c(s1)CCCC2`, `Cn1nnnc1SCC(=O)Nc1ccc(N2CCOCC2)cc1` is lower in “hERG current change (%, negative = inhibition) at 1uM” value: 6.93% for the first, 4.43% for the second.

First: C=CCn1c(SCC(=O)Nc2cccc(OC)c2)nnc1-c1cccnc1
Second: O=C(Nc1cccc2ncccc12)c1ccc(Cl)cc1
The “hERG current change (%, negative = inhibition) at 1uM” value of the first is lower: -20.9% for the first, 12.7% for the second.

Compared with `Cc1ccc(C(=O)Nc2ccc(N3CCN(S(C)(=O)=O)CC3)cc2)cc1`, `O=C(CCNC(=O)c1ccc(Cl)cc1)NN1C(=O)NC2(CCCCC2)C1=O` is higher in “hERG current change (%, negative = inhibition) at 1uM” value: 6.82% for the first, 8.84% for the second.

Going from `O=C(/C=C/c1ccc(-c2ccccc2[N+](=O)[O-])o1)c1ccccc1` to `N#C/C(C(N)=O)=C1/SC=C(c2ccccc2)N1c1ccccc1`, the “hERG current change (%, negative = inhibition) at 1uM” value rises from 8.41% to 11.4%.

Going from `CC(C)(C)n1ncc2c(=O)n(Cc3ccccc3Br)cnc21` to `CSc1nc(Cc2ccccc2)cc(=O)[nH]1`, the “hERG current change (%, negative = inhibition) at 1uM” value rises from 10.3% to 13.2%.

Compared with `CC(=O)CSc1ncnc2sc3c(c12)CCC3`, `COc1ccc(N(CC(=O)NC2CCCCC2)C(=O)c2snc(C(N)=O)c2N)cc1` is lower in “hERG current change (%, negative = inhibition) at 1uM” value: 11.8% for the first, 10.7% for the second.

First: c1ccc2c(c1)nc1n2CCN1
Second: Cc1ccc(OCc2nc(-c3ccccn3)no2)c(Br)c1
The “hERG current change (%, negative = inhibition) at 1uM” value of the first is higher: 12.8% for the first, 7.71% for the second.

Compared with `CNC(=S)N/N=C/c1cc(Br)cc(Br)c1O`, `Nc1ccc(NC(=O)c2ccco2)c(Cl)c1` is higher in “hERG current change (%, negative = inhibition) at 1uM” value: 1.91% for the first, 12.5% for the second.

First: COCC(=O)N1CCC(Oc2ccc(C(=O)N3C[C@H]4CC[C@H]3C4)cc2)CC1
Second: O=C1Nc2cc(C(=O)NCCN3CCCCCC3)ccc2S/C1=C\c1ccccc1
The “hERG current change (%, negative = inhibition) at 1uM” value of the first is higher: 10.7% for the first, 2.56% for the second.

Compared with `CCOc1ccc(C(C)=O)cc1CN1C(=O)NC2(CCCCC2C)C1=O` (centres unmarked), `CCc1ccc(/C=C2/C(=O)NC(=O)N2C(C)=O)cc1` is higher in “hERG current change (%, negative = inhibition) at 1uM” value: 6.38% for the first, 8.92% for the second.

Going from `COCCN1C=C(C(=O)OC)C(c2ccc3c(c2)OCO3)C(C(=O)OC)=C1` to `CCC(NC(=O)NCc1ccc2c(c1)OCO2)(C(F)(F)F)C(F)(F)F`, the “hERG current change (%, negative = inhibition) at 1uM” value falls from 7.91% to -0.276%.

Going from `CCC1Cc2c(nc(N)c3c(N)nc(N4CCCCC4)c(C#N)c23)O1` (centres unmarked) to `Cn1c(=O)c2c(nc(CN3CCN(C(=O)c4ccco4)CC3)n2CC(=O)C(C)(C)C)n(C)c1=O`, the “hERG current change (%, negative = inhibition) at 1uM” value rises from -6.28% to 15.9%.

Going from `CCN(CC)C(=O)c1cnn(-c2ccccc2)c1NC(=O)c1ccco1` to `FC(F)(F)c1cccc(-c2nnc3ccc(C(F)(F)F)cn23)c1`, the “hERG current change (%, negative = inhibition) at 1uM” value falls from 1.12% to -25.2%.

With `CC1CN(C(=O)c2cccs2)CC(C)O1` (centres unmarked) the “hERG current change (%, negative = inhibition) at 1uM” value was 7.22%.
